# Test results reported in the supplement of paper PMC3334620.
# Whole data set: some 33,000 sequences, median “E-score (-0.5 to 0.5)” near -0.021, cut for the highest 2% near 0.32. This is one part of the list.
# Molecular target: T1, Zap1 (UniProt P47043)
# T1 sequence: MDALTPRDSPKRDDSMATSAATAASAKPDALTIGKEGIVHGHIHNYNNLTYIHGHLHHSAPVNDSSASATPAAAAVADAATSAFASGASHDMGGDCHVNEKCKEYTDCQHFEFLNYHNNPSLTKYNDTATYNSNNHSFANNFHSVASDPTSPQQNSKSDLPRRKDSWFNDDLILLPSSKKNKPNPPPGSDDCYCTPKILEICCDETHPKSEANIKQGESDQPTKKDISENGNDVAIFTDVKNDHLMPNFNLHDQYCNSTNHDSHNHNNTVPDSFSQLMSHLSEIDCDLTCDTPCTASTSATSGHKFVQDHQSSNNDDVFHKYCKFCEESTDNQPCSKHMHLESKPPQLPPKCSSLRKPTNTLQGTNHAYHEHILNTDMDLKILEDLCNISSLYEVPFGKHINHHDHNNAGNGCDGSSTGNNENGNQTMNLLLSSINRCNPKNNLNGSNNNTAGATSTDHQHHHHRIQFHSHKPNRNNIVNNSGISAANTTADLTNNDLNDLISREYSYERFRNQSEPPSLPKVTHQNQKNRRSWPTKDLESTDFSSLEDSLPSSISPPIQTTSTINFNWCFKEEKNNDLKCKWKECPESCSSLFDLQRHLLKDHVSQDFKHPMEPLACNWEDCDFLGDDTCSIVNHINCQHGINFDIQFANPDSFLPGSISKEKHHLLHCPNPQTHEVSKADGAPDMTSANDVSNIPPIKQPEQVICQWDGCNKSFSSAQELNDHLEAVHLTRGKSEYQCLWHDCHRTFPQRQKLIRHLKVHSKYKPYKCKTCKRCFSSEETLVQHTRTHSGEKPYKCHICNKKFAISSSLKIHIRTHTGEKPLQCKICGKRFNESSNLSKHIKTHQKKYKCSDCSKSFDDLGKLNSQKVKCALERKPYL
# Assay: PBM E-score (8-mer binding enrichment) (E-score (-0.5 to 0.5)); higher = stronger / more preferred TF binding; most listed sequences are background and not binding sites
# Settings: protein concentration: 200 nM; construct: GST-full length
# Method in brief: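 Universal all-10-mer Agilent arrays, double-stranded by primer extension on fresh or once-stripped slides, were probed with about 100-200 nM GST-tagged yeast transcription factors made by PURExpress. Fluorescent anti-GST detected bound protein, and masliner normalised the scans. E-scores from the Universal PBM Analysis Suite were given to each ungapped eight-base word pooled with its reverse complement.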
row,Sequence,PBM E-score
1,GCTTACTA,-0.0158
2,ACTCACCG,-0.0582
3,CGACTAGA,-0.132
4,CCAGGCTA,-0.255
5,CCGACGGA,-0.0612
6,GTAGGACA,0.134
7,CATTTGAC,0.0147
8,CTTGAGCA,-0.0146
9,ACGGCAAT,0.0376
10,CAGGCTCG,-0.172
11,GTCCCAAA,0.0529
12,CTAACTAC,0.0772
13,TCACGTGA,-0.169
14,GCGACTCA,-0.117
15,GAAAATTA,-0.071
16,GGAACAAA,0.111
17,ATCATACG,-0.0919
18,AAGGAACG,-0.0438
19,AACACCTG,-0.0293
20,ATACTGAA,-0.0762
21,AGCCGCCG,-0.13
22,ATACGAGC,0.0897

row,Sequence,PBM E-score
1,GTTCTGTA,0.206
2,CATACTGG,-0.142
3,ACTTCAGG,0.0219
4,AGAACATA,0.16
5,CAACGCCA,-0.0912
6,TTCCCAAA,0.0682
7,CATGCTGA,0.0171
8,CTTGACAC,-0.0234
9,ATCCGGCC,-0.0853
10,GCCCTATA,-0.144
11,TAAAAAGA,0.103
12,ACGTGCGC,-0.112
13,ACGACGAC,-0.219
14,GAACATCA,-0.0169
15,GCTCGTCC,-0.166
16,ATGTGTAA,0.0333
17,CAGTGCGC,-0.228
18,AGGCTATG,-0.208
19,CGTGATTA,0.151
20,CCAGGCGC,-0.179
21,GAGTTAAC,0.00603
22,ACCCCAGG,0.164

row,Sequence,PBM E-score
1,CTTAACGC,-0.0364
2,AACCAGCT,0.0824
3,AGTCAGAT,-0.193
4,CTGGAACC,0.0977
5,CGTTGACC,0.178
6,GAAGCATC,-0.258
7,CCAATGGA,-0.192
8,CAGCTGGC,-0.0978
9,GCTTATAA,0.106
10,ACCGCAGA,0.0711
11,TCTCGAGA,0.13
12,AGGTCTAT,0.0564
13,AGATCAAT,0.0157
14,CTATATGC,-0.045
15,CGACGCTA,-0.0971
16,AATTTGAA,0.0837
17,AGCCGAGG,0.0398
18,GATCTAGC,-0.101
19,CCGATAAG,-0.137
20,ACATGTTA,0.0859
21,CTAGTATC,0.0553
22,CATAAGCA,-0.0662

row,Sequence,PBM E-score
1,TAACACCA,0.0451
2,AACATACT,0.0307
3,AGCCTTAG,-0.0136
4,ACATTATG,-0.0663
5,AGGTGTGC,-0.087
6,GATTGAAA,0.0824
7,CCCGTGCA,-0.107
8,CCTCAGAG,0.034
9,ACGACAGT,-0.186
10,AATACTCA,0.0232
11,TACGCGCA,-0.0356
12,CGAACATC,0.0222
13,AGTCTGGC,-0.274
14,GTCCCAGA,-0.0513
15,AGTGGAGA,-0.0607
16,CTCACGAC,-0.141
17,CCCAAAAG,0.199
18,AAGGCTGG,-0.279
19,ATAGTGGC,-0.146
20,ATAGGGGG,-0.314
21,CTGGATCC,0.0142
